Data as given in PubChem BioAssay AID493208 (National Center for Advancing Translational Sciences (NCATS), 2011).
Screen size: about 44,000 compounds; about 340 (0.77%) were called active. This list was built around the results that the source calls inconclusive (neither active nor inactive); the mix of calls is not that of the screen. The call rests on the fitted dose curve; in most records, active means well fitted inhibition curve with a large enough effect; inconclusive means small, poorly fitted or top-dose-only effect; inactive means flat fitted curve, though single readings scatter. Potencies of inconclusive entries are left out as doubtful fits.
Potency means the concentration at half of the fitted maximal effect; tags describe the fitted curve by direction and shape.

Experiment: Acumen qHTS Assay for Inhibitors of the mTORC1 Signaling Pathway in MEF (Tsc2-/-, p53-/-) Cells: Sytravon; further: nearly all actives have a fitted effect of over 50% in size
Settings: phospho-rpS6 immunofluorescence/PI, 24 h; series mostly up to 38.3 µM
From the text: NIH Molecular Libraries Probe Production Centers Network [MLPCN] NIH Chemical Genomics Center [NCGC] MLPCN Grant: NS059428-01 Assay Submitter (PI): Blenis, John; Hoffman, Greg; Harvard University NCGC Assay Overview: The mammalian target of rapamycin (mTOR) is an intracellular serine/threonine kinase Aberrant regulation of mTOR signaling plays a causative role in a number of human diseases, including cancer, benign tumors such as lymphangioleiomyomatosis (LAM) and Tuberous Sclerosis Complex (TSC), and metabolic diseases such as diabetes and obesity. This project aims to identify inhibitors of ribosomal protein S6 (rpS6) phosphorylation. The phosphorylation of rpS6 is a key event downstream of mTOR activation. The assay uses a phospho-specific antibody of phospho-rpS6 to detect inhibitors of mTOR activation. Mutations in the Tsc1 and Tsc2 genes are the underlying genetic lesions responsible for TSC, causing constitutive activation of the mTORC1 pathway and leading to profound effects on cell metabolism. Aberrant metabolism in cancer has recently received significant attention as a target to develop therapeutic agents in the treatment of cancer.1 As Tsc2-/- cells have lost the ability to respond to energy and growth factor deprivation, these cells are unable to properly down regulate cellular biosynthetic processes in response to metabolic stress, and are thus extremely sensitive to glucose deprivation-induced death.2 A central goal of this project is to explore the unique cell survival and metabolic properties of cells with Tsc1 or Tsc2 by screening for compounds that selectively target the Tsc2-/- MEFs by screening both Tsc2-/- and WT MEF cell lines. We hope to better understand these aspects of TSC physiology in order to exploit them for therapeutic benefit.
NCGC Acumen Assay Protocol Summary: For quantitative high throughput analysis of mTORC1 signaling, we developed a cell-based assay for immuno-fluorescence based detection of rpS6 phosphorylation on the Acumen Explorer that will be used a platform for the primary small molecule screen. Mouse embryonic fibroblasts (MEFs) are cultured in 1536-well plates using DMEM + 10% FBS. Twenty-four hrs after plating, test compounds (solubilized in DMSO) are delivered and incubated with the cells for 24 hrs at 37 degree Celsius. Following the incubation, media with compound is aspirated and the cells are fixed in 4% paraformaldehyde (PFA) containing PBS + 0.2% TX-100. Next, PFA is aspirated, cells are washed two times with PBS plus 0.2% TX-100 and the cells are blocked for 1 hr at room temperature (blocking buffer: LiCOR Blocking Buffer plus 0.2% TX-100). […] Cells are washed two times with PBS plus 0.2% TX-100, and stained with 10 uM propidium iodide (PI) for 20-25 minutes for cell number measurement (1:500 dilution of Hoescht staining is also added for IN Cell imaging). The plates are scanned on the Acumen Explorer laser scanning instrument (TTP Labtech) using the 488nm laser for simultaneous excitation of the Alexa-488 and PI. […] The normalized phospho-S6 staining is calculated as the ratio of the integrated Alexa 488 intensity divided by the integrated PI intensity for the single concentration rapamycin control (7.5 nM) and DMSO columns. […] Inhibition of the pathway is defined based on the normalized phospho-S6 intensity in rapamycin treated cells. Active cells are defined as those with a normalized phospho-S6 staining above this threshold, and each treatment is reported as the % positive cells in the well, where thresholds are defined by selecting wells with the highest and lowest signal and differentiating between the % non-active and % active populations. In addition to the pathway specific phospho-S6 endpoint, the number of PI stained cells from the Acumen is recorded as a measure of cell viability. The primary screen was performed with a MEF cell line in a defined genetic background, Tsc2-/-, p53-/- cell line stably transfected with an empty vector control (Tsc2-/- MEF).
For `Cn1cc(-c2cc3n(n2)CCC(=O)N3CC(=O)NCc2ccc(Cl)cc2)c2ccccc21`, the Potency was inconclusive [falling, single point]. For `CCCCN(C)CC(O)Cn1cc(/C=C/C(=O)c2ccc(C)cc2)c2ccccc21` (stereo not drawn), the Potency was inconclusive [falling, single point]. With `CCOC(=O)c1c(C)oc2ncnc(Nc3cc(Cl)ccc3OC)c12` the Potency was inconclusive [falling, single point]. With `Clc1cccc(CSc2ccc(-c3cccs3)nn2)c1` the Potency was inconclusive [falling, single point]. With `CCOc1ccccc1C(=O)N(Cc1ccco1)Cc1ccccc1F` the Potency was inconclusive [falling, single point]. With `Cc1cc(C)cc(NC(=O)CCCn2c(=O)c3cccn3c3ccccc32)c1` the Potency was inconclusive [falling, partial curve, poor fit]. With `COc1ccc(Cl)cc1C1CC(=O)Nc2cc3c(cc21)OCCO3` (stereo not drawn) the Potency was inconclusive [falling, partial curve, poor fit]. With `COc1ccc(-c2c(C)c3ccc(O)c(CN4CCOCC4)c3oc2=O)cc1` the Potency was “inactive”. For `Cc1cccc(N2CCN(C(=O)C3CCCN(S(=O)(=O)c4ccc5c(c4)oc(=O)n5C)C3)CC2)c1C` (stereo not drawn), the Potency was “inactive”. In the case of `CC1Cc2cc(S(=O)(=O)CCC(=O)NCc3ccc(Cl)cc3)ccc2N1C(=O)C1CC1` (stereo not drawn), the Potency is reported as inconclusive [falling, partial curve]. In the case of `Cc1ccc(C)c(NC(=O)Cn2nnc(C(=O)NCc3ccccc3Cl)c2N)c1`, the Potency is reported as “inactive”. For `COCCOC(=O)c1c(C)oc2c1cc(NS(=O)(=O)c1ccc(Cl)c(C)c1)c1ccccc12`, the Potency was inconclusive [falling, partial curve, poor fit]. For `COc1ccc(OCc2ccc(-c3nc(C#N)c(NCc4ccccc4)o3)o2)cc1`, the Potency was “inactive”. In the case of `CCOc1ccc(C2C(C(=O)OC)=C(C)NC3=C2C(=O)c2ccccc23)cc1OC` (stereo not drawn), the Potency is reported as inconclusive [falling, partial curve]. With `Cc1ccc(CNc2oc(-c3ccc(COc4ccc(Cl)cc4)o3)nc2C#N)cc1` the Potency was inconclusive [falling, single point]. For `Cc1ccccc1OCc1cc(=O)n2c(-c3ccccc3)csc2n1`, the Potency was inconclusive [falling, single point]. With `CCOC(=O)c1cc2c(=O)n3ccccc3nc2n(C(C)C)c1=NC(=O)c1c(-c2c(F)cccc2Cl)noc1C` the Potency was “inactive”. With `COc1ccc(Cl)cc1NC(=O)CCn1nc(C)cc1C` the Potency was inconclusive [falling, single point]. For `CCc1ccc(-c2[nH]nc3nc(-c4cc(OC)ccc4OC)cc(C(=O)O)c23)cc1`, the Potency was inconclusive [falling, single point]. In the case of `CC(C)(C)c1ccc(C(=O)Nc2nnc3n2CCS3)cc1`, the Potency is reported as inconclusive [falling, single point]. In the case of `CCOc1ccc(CNC(=O)c2ccc3c(c2)N(Cc2ccccc2)CCS3)cc1`, the Potency is reported as inconclusive [falling, partial curve, poor fit]. In the case of `CCc1ccc(S(=O)(=O)c2cn(Cc3ccc(OC)cc3)c3cc(OC)c(OC)cc3c2=O)cc1`, the Potency is reported as “inactive”. With `COc1ccc(NC(=O)CCc2c(C)nc3cc(-c4cccc(F)c4)nn3c2C)cc1Cl` the Potency was “inactive”. In the case of `Cc1ccc(CNC(=O)c2c(Nc3ccccc3C)sc(C(=O)c3ccc(F)cc3)c2N)cc1`, the Potency is reported as inconclusive [falling, single point]. In the case of `O=C(CCn1c(=O)c2ccccc2n(CC(=O)Nc2ccc(F)cc2)c1=O)NCCc1ccccc1`, the Potency is reported as inconclusive [falling, partial curve, poor fit]. With `Fc1ccc(N2CCN(c3ncnc4onc(-c5ccc(Cl)cc5)c34)CC2)cc1` the Potency was “inactive”. With `Cc1oc2ccc(O)c(CN3CCCCCC3)c2c1C(=O)Nc1cccc(C(F)(F)F)c1` the Potency was inconclusive [falling, single point]. In the case of `COc1ccc(OC)c(CNC(=O)NCc2noc3ccc(C)cc23)c1`, the Potency is reported as inconclusive [falling, partial curve, poor fit]. For `COc1ccc(-c2cc(NCc3ccc(C)cc3)n3cnnc3n2)cc1`, the Potency was inconclusive [falling, single point]. In the case of `COc1cccc(NC(=O)C(=O)NCCc2sc(-c3cccc(C)c3)nc2C)c1`, the Potency is reported as inconclusive [falling, partial curve, poor fit]. For `CCOC(=O)c1ccc(N2C(=O)c3[nH]nc(-c4ccccc4)c3C2c2cccs2)cc1` (stereo not drawn), the Potency was inconclusive [falling, single point]. In the case of `Cc1ccc(C)c(N2CCN(CCCNC(=O)Cn3c(-c4cccs4)cc4ccccc43)CC2)c1`, the Potency is reported as inconclusive [falling, single point]. In the case of `Cc1cc(OCCn2c(C3CC(=O)N(Cc4ccc(F)cc4)C3)nc3ccccc32)ccc1Cl` (stereo not drawn), the Potency is reported as “inactive”. For `CCCn1cc(S(=O)(=O)c2cccc(Cl)c2)c(=O)c2cc(F)c(N3CCN(CC)CC3)cc21`, the Potency was inconclusive [falling, single point]. With `COc1ccc(-c2cc(C(F)(F)F)nc(S(=O)(=O)CCCC(=O)Nc3ccccc3C(F)(F)F)n2)cc1OC` the Potency was active: 18.5 µM. In the case of `COc1ccc(S(=O)(=O)NCC(c2ccco2)S(=O)(=O)c2ccc(C)cc2)cc1C` (stereo not drawn), the Potency is reported as “inactive”. For `CCOc1ccc(/C=C/c2nc(C#N)c(N(C)C)o2)cc1`, the Potency was inconclusive [falling, partial curve]. In the case of `Cc1ccc(NC(=O)Cn2cc(S(=O)(=O)N3CCN(c4ccccc4F)CC3)c3ccccc3c2=O)cc1F`, the Potency is reported as “inactive”. For `Cc1cc2c(cc1NC(=O)c1ccc(C(C)(C)C)cc1)n(C)c(=O)c(=O)n2C`, the Potency was “inactive”. In the case of `O=C1CC(c2ccccc2)Cc2[nH]c(=O)c(-c3nc(-c4ccc(F)cc4)cs3)cc21` (stereo not drawn), the Potency is reported as inconclusive [falling, full curve]. For `Cc1cc(OCC(=O)NCC2(N(C)C)CCCCC2)cc(C)c1Cl`, the Potency was inconclusive [falling, single point]. For `Cc1cc(NC(=O)C2CCCN(S(=O)(=O)c3ccc(Br)s3)C2)ccc1Br` (stereo not drawn), the Potency was “inactive”. With `COc1ccc(N2CCN(C(CNC(=O)C(=O)NCc3ccc(F)cc3)c3cccnc3)CC2)cc1` (stereo not drawn) the Potency was inconclusive [falling, partial curve, poor fit]. In the case of `CCCCN1C(=O)C(O)(c2c(C)[nH]c3ccccc23)c2cc(Br)ccc21` (stereo not drawn), the Potency is reported as inconclusive [falling, partial curve]. For `COc1ccccc1C1C=C(c2ccc(F)cc2)Nc2nc(-c3ccc(Cl)cc3)nn21` (stereo not drawn), the Potency was “inactive”. For `CCCCN1C(=O)c2[nH]nc(-c3ccccc3O)c2C1c1cccc(OCc2ccccc2)c1` (stereo not drawn), the Potency was inconclusive [falling, single point]. For `COc1ccc(C2=CC(c3ccc(F)cc3)n3ncc(C(=O)Nc4ccc(C)cc4)c3N2)cc1` (stereo not drawn), the Potency was inconclusive [falling, partial curve, poor fit]. In the case of `Cc1ccc(N(CC(=O)NCCc2ccc(Cl)cc2)S(=O)(=O)N(C)C)cc1`, the Potency is reported as inconclusive [falling, single point]. For `O=C(Nc1cccs1)Nc1cc(C(F)(F)F)ccc1Cl`, the Potency was inconclusive [falling, single point]. For `Cc1ccc(Cl)cc1N1CCN(C(=O)c2cnc(N3CCOCC3)c3ccccc23)CC1`, the Potency was inconclusive [falling, single point]. For `COc1ccccc1CNS(=O)(=O)c1cc(C(=O)Nc2cccc(C(F)(F)F)c2)ccc1F`, the Potency was inconclusive [falling, single point]. For `Cc1cccc(OCC(=O)Nc2c(C)ccc3nsnc23)c1C`, the Potency was inconclusive [falling, partial curve, poor fit]. In the case of `O=C(CSc1ncc(S(=O)(=O)c2ccc(Br)cc2)c(=O)[nH]1)NCc1ccc(Cl)cc1`, the Potency is reported as “inactive”. In the case of `CCc1ccccc1N(C)C(=O)C1CCCN(c2ncnc3onc(-c4ccc(F)cc4)c23)C1` (stereo not drawn), the Potency is reported as inconclusive [falling, partial curve, poor fit]. In the case of `Cc1ccc(OCCn2c(CNc3cccc(C)c3)nc3ccccc32)cc1`, the Potency is reported as inconclusive [falling, single point]. With `CC(=O)c1ccc(C(=O)N(CCCN(C)C)c2nc3c(C)c(C)ccc3s2)cc1` the Potency was inconclusive [falling, single point]. With `Cc1nc2ccn(Cc3cccs3)c(=O)c2cc1C(=O)N1CCN(c2ccc(F)cc2)CC1` the Potency was inconclusive [falling, single point]. In the case of `COc1ccc(OC2CCN(S(=O)(=O)c3ccc(OC)cc3)CC2)cc1`, the Potency is reported as inconclusive [falling, single point]. For `Cc1cc(C)c(Nc2nn3c(=O)c4cc5c(cc4nc3s2)OCO5)c(C)c1`, the Potency was “inactive”. In the case of `Oc1ccc(NCc2ccc(OCc3ccccc3)cc2)cc1`, the Potency is reported as active: 14.7 µM. With `CCN(CC)S(=O)(=O)c1ccc2c(c1)N(CC(=O)NCCCN1CCN(c3cc(Cl)ccc3C)CC1)C(=O)CO2` the Potency was inconclusive [falling, single point]. In the case of `CN(C)CCN(Cc1ccco1)C(=O)c1oc2ccccc2c1NC(=O)c1cccc(F)c1`, the Potency is reported as inconclusive [falling, single point]. With `COc1ccc(CNCc2c(C(=O)O)n(Cc3ccc(F)cc3)c3cc(C)ccc23)cc1OC` the Potency was inconclusive [falling, single point].
